In patent US20260258137A1 (HARBOUR BIOMED SHANGHAI, published 2026):
One block for each binder: values may come before it.

How the values were obtained:
[1] = molecular target: human PD-L1 on Hep3B cells co-expressing human PD-L1 and OS8 (human, UniProt Q9NZQ7); assay: cell-based or functional assay
[2] = molecular target: T1, Human TGFB1 (Novoprotein, CA59) (human, UniProt P01137 in part, biotinylated with EZ-Link Sulfo-NHS-LC-Biotin in the BLI experiment of Example 19; not biotinylated in the ELISA of Example 16); assay: ELISA, coated human TGFB1
T1 construct: bought reagent; also called human TGFB1 protein; biotinylated human TGFB1

[3] = molecular target: T2, human PD-L1 on CHO-K1 cells (CHO-K1/hPD-L1, Nanjing Genscript, M00543) (human, UniProt Q9NZQ7); assay: flow cytometry on CHO-K1/hPD-L1 cells
T2 construct: whole, on cells; also called CHO-K1 cells overexpressing human PD-L1; human PD-L1 on the cell surface

[4] = molecular target: T2, human PD-L1 on CHO-K1 cells …; assay: flow cytometry competition: biotin-hPD-1 binding to CHO-K1/hPD-L1 cells
[5] = molecular target: T3, human PD-L1 protein with histidine tag (NovoProtein, C315) (human, UniProt Q9NZQ7 in part, limits assumed, biotinylated with EZ-Link Sulfo-NHS-LC-Biotin in the epitope competition experiments (Examples 8 and 20); not biotinylated in the affinity experiments); assay: BLI (Octet), fusion protein on AHC sensor, antigen 25-1.563 nM, 1:1 global fit
T3 construct: bought reagent; also called biotinylated PD-L1 protein; not shown: histidine tag

[6] = molecular target: human TGFB1 protein (R&D Systems, 240-B/F) (human, UniProt P01137 in part); assay: cell-based or functional assay
[7] = molecular target: T1, Human TGFB1 (Novoprotein, CA59); assay: BLI (Octet), biotinylated hTGFB1 on SA sensor, 1:1 global fit
T1 sequence (P01137 279-390 limits assumed): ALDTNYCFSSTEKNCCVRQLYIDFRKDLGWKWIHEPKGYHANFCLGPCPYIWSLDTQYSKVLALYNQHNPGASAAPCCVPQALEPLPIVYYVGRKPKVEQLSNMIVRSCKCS

[8] = molecular target: T3, human PD-L1 protein with histidine tag …; assay: BLI (Octet), fusion protein on AHC sensor, antigen 6.25-0.39 nM, 1:1 global fit

EC50 (nM), PD-1 reporter gene cell line [1]: 0.049 nM | Maximum fluorescence value (RLU) [1]: 3550 RLU | EC50 [2]: 1.25 nM | OD Maximum value [2]: 1.78 OD | EC50 [3]: 0.531 nM | MFI maximum value [3]: 51500 MFI | IC50 [4]: 0.266 nM | Kd [5]: 0.15 nM | koff [5]: 0.000121 s⁻¹ | kon [5]: 807000 M⁻¹ s⁻¹
B1: PR001488 (other)
heavy: EVQLVESGGGLVQPGGSLRLSCAASGFTFSSYWMSWVRQAPGKGLEWVANIKQEGSEKYYVDSVKGRFTISRDNAKNSLYLQMNSLRAEDTAVYYCARDRAVAGAFDIWGQGTMVTVSSASTKGPSVFPLAPSSKSTSGGTAALGCLVKDYFPEPVTVSWNSGALTSGVHTFPAVLQSSGLYSLSSVVTVPSSSLGTQTYICNVNHKPSNTKVDKKV[letters of human IgG1 Fc omitted]GGGSGGGGSGGGGSGGGGSGIPPHVQKSVNNDMIVTDNNGAVKFPQLCKFCDVRFSTCDNQKSCMSNCSITSICEKPQEVCVAVWRKNDENITLETVCHDPKLPYHDFILEDAASPKCIMKEKKKPGETFFMCSCSSDECNDNIIFSEEYNTSNPD
light: DIQMTQSPSTLSASVGDRVTVTCRASQSIYIWLAWYQQKPGKAPNLLIYKASSLETGVPSRFSGSGSGTEFTLTISSLQPDDFATYYCQQYYGSSRTFGQGTKVEIKRTVAAPSVFIFPPSDEQLKSGTASVVCLLNNFYPREAKVQWKVDNALQSGNSQESVTEQDSKDSTYSLSSTLTLSKADYEKHKVYACEVTHQGLSSPVTKSFNRGEC
notes: anti-PD-L1 / TGFBRII bifunctional fusion protein: PR000265 heavy chain (hIgG1) - (G4S)4 - human TGFBRII extracellular region 24-159

IC50 (nM), Smad SEAP reporter in HEK-Blue TGFB cells [6]: 0.0769 nM | Maximum inhibition rate (%), Smad SEAP reporter in HEK-Blue TGFB cells [6]: 105% | Kd [7]: 0.128 nM | koff [7]: 0.000573 s⁻¹ | kon [7]: 4.48e+06 M⁻¹ s⁻¹ | Kd [8]: 0.0716 nM | koff [8]: 9.16e-05 s⁻¹ | kon [8]: 1.28e+06 M⁻¹ s⁻¹
B2: PR002466 (other)
heavy: QVQLVQSGAEVKKPGASVKVSCKASGYTFTSYWMHWVRQAPGQGLEWMGRIGPNSGFTSYNEKFKNRVTMTRDTSTSTVYMELSSLRSEDTAVYYCARGGSSYDYFDYWGQGTTVTVSSASTKGPSVFPLAPCSRSTSESTAALGCLVKDYFPEPVTVSWNSGALTSGVHTFPAVLQSSGLYSLSSVVTVPSSSLGTKTYTCNVDHKPSNTKVDKRV[letters of human IgG4 Fc with S228P F234A L235A (EU numbers) omitted]AGGGGSGGGGSGGGGSGGGGSGGAVKFPQLCKFCDVRFSTCDNQKSCMSNCSITSICEKPQEVCVAVWRKNDENITLETVCHDPKLPYHDFILEDAASPKCIMKEKKKPGETFFMCSCSSDECNDNIIFSEEYNTSNPD
light: DIVLTQSPASLAVSPGQRATITCRASESVSIHGTHLMHWYQQKPGQPPKLLIYAASNLESGVPARFSGSGSGTDFTLTINPVEAEDTANYYCQQSFEDPLTFGQGTKLEIKRTVAAPSVFIFPPSDEQLKSGTASVVCLLNNFYPREAKVQWKVDNALQSGNSQESVTEQDSKDSTYSLSSTLTLSKADYEKHKVYACEVTHQGLSSPVTKSFNRGEC
notes: also called Hengrui fusion protein 9
